Measured values: the supplement of paper PMC10037445
Several values for one entry are separate records, joined by “and”; a condition that tells them apart may be missing. Equal values may be shown once. ± gives the standard deviation of the averaged measurements. The full ranking holds about 2,900 compounds; the median of “IRF Lucia reporter activity, fold change vs agonist alone” is about 0.9, and the highest 2% start at about 2.8. This is one part of the list.

Assays:
RAW-Dual [1] = experiment: IRF Lucia reporter activity, fold change vs agonist alone; cytotoxicity flag (confluency mask): not cytotoxic; higher = enhanced IRF activity
Summary of the method: (§1)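 RAW-Dual macrophages were seeded in DMEM at 50,000 cells/well in 384-well plates, given 50 nL of library stock by pin tool, and given a PRR agonist 1 h later. Plates were held at 37 °C, 5% CO2 for 20 hours, after which supernatant was read for IRF by QuantiLuc luminescence and for NF-κB by QuantiBlue absorbance at 620 nm. Reporter activity is expressed as fold change over wells that received agonist alone. A well was called cytotoxic when IncuCyte confluency fell below 70% of agonist controls in both mask sets.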

RAW-Dual [2] = experiment: IRF Lucia reporter activity, fold change vs agonist alone; higher = enhanced IRF activity; settings: agonist: MPLA (TLR4) […]
Summary of the method: as §1

RAW-Dual [3] = experiment: IRF Lucia reporter activity, fold change vs agonist alone; cytotoxicity flag (confluency mask): cytotoxic (confluency <70% of control); higher = enhanced IRF activity
Summary of the method: as §1

[4] = agonist: 3'3'-cGAMP (STING) 10 ug/mL
[5] = library stock concentration (final ~1000-fold dilution): 10 mM, cytotoxicity flag (confluency mask): not cytotoxic
[6] = library stock concentration (final ~1000-fold dilution): 10 mM, cytotoxicity flag (confluency mask): cytotoxic (confluency <70% of control)

## Cc1cnc(C(=O)NC2CCCCC/C=C\C3CC3(C(=O)NS(=O)(=O)C3CC3)NC(=O)C3CC(Oc4nc5ccccc5c5ccccc45)CN3C2=O)cn1 (configuration not stated) (library stock concentration (final ~1000-fold dilution): 10 mM)
RAW-Dual [1]; [4]
  IRF Lucia reporter activity: 0.833
RAW-Dual [1]; agonist: LPS (TLR4) 0.1 ug/mL
  IRF Lucia reporter activity: 1.15

## Cc1cnc(C(=O)NC2CCCCC/C=C\C3CC3(C(=O)NS(=O)(=O)C3CC3)NC(=O)C3CC(Oc4nc5ccccc5c5ccccc45)CN3C2=O)cn1 (configuration not stated)
RAW-Dual [2]; [5]
  IRF Lucia reporter activity: 0.981

## COC1CC2CCC(C)C(O)(O2)C(=O)C(=O)N2CCCCC2C(=O)OC(C(C)CC2CCC(OCCO)C(OC)C2)CC(=O)C(C)C=C(C)C(O)C(OC)C(=O)C(C)CC(C)C=CC=CC=C1C (configuration not stated) (library stock concentration (final ~1000-fold dilution): 10 mM)
RAW-Dual [1]; [4]
  IRF Lucia reporter activity: 1.28
RAW-Dual [1]; agonist: LPS (TLR4) 0.1 ug/mL
  IRF Lucia reporter activity: 2.63

## COC1CC2CCC(C)C(O)(O2)C(=O)C(=O)N2CCCCC2C(=O)OC(C(C)CC2CCC(OCCO)C(OC)C2)CC(=O)C(C)C=C(C)C(O)C(OC)C(=O)C(C)CC(C)C=CC=CC=C1C (configuration not stated)
RAW-Dual [2]; [5]
  IRF Lucia reporter activity: 3.06

## CN(C)C(=O)C(O)C(Cc1ccccc1)NC(=O)c1cc2cc(Cl)ccc2[nH]1 (configuration not stated)
RAW-Dual [2]; [5]
  IRF Lucia reporter activity: 0.647

## CN(C)C(=O)C(O)C(Cc1ccccc1)NC(=O)c1cc2cc(Cl)ccc2[nH]1 (configuration not stated) (library stock concentration (final ~1000-fold dilution): 10 mM)
RAW-Dual [1]; [4]
  IRF Lucia reporter activity: 0.315
RAW-Dual [1]; agonist: LPS (TLR4) 0.1 ug/mL
  IRF Lucia reporter activity: 0.547

## C=C1CCCC2(C)C=C3OC(=O)C(C)=C3CC12 (configuration not stated) (library stock concentration (final ~1000-fold dilution): 10 mM)
RAW-Dual [1]; [4]
  IRF Lucia reporter activity: 0.957
RAW-Dual [1]; agonist: LPS (TLR4) 0.1 ug/mL
  IRF Lucia reporter activity: 0.665

## O=C(O)c1cc(C(F)(F)F)ccc1N1CCC(OCc2ccccn2)C1 (configuration not stated) (library stock concentration (final ~1000-fold dilution): 10 mM)
RAW-Dual [1]; [4]
  IRF Lucia reporter activity: 0.681
RAW-Dual [1]; agonist: LPS (TLR4) 0.1 ug/mL
  IRF Lucia reporter activity: 1.88

## O=C(O)c1cc(C(F)(F)F)ccc1N1CCC(OCc2ccccn2)C1 (configuration not stated)
RAW-Dual [2]; [5]
  IRF Lucia reporter activity: 1.67

## CC(=O)OC1CCC2(C)C(CCC3(C)C2C(=O)C=C2C4C(C)C(C)CCC4(C)CCC23C)C1(C)C(=O)O (configuration not stated) (library stock concentration (final ~1000-fold dilution): 10 mM)
RAW-Dual [1]; [4]
  IRF Lucia reporter activity: 0.994
RAW-Dual [1]; agonist: LPS (TLR4) 0.1 ug/mL
  IRF Lucia reporter activity: 0.483

## CC(C)C[C@H](NC(=O)[C@H](Cc1ccccc1)NC(=O)c1cnccn1)B(O)O
RAW-Dual [2]; [6]
  IRF Lucia reporter activity: 2.29

## CC(C)C[C@H](NC(=O)[C@H](Cc1ccccc1)NC(=O)c1cnccn1)B(O)O (library stock concentration (final ~1000-fold dilution): 10 mM)
RAW-Dual [3]; [4]
  IRF Lucia reporter activity: 1.12
RAW-Dual [3]; agonist: LPS (TLR4) 0.1 ug/mL
  IRF Lucia reporter activity: 2.41

## COC(=O)C1CC2=CC(=O)CCC2(C)C23OC2CC2(C)C(CCC24CCC(=O)O4)C13 (configuration not stated)
RAW-Dual [2]; library stock concentration (final ~1000-fold dilution): 2 mM, cytotoxicity flag (confluency mask): not cytotoxic
  IRF Lucia reporter activity: 1.19

## COC(=O)C1CC2=CC(=O)CCC2(C)C23OC2CC2(C)C(CCC24CCC(=O)O4)C13 (configuration not stated) (library stock concentration (final ~1000-fold dilution): 2 mM)
RAW-Dual [1]; [4]
  IRF Lucia reporter activity: 0.773
RAW-Dual [1]; agonist: LPS (TLR4) 0.1 ug/mL
  IRF Lucia reporter activity: 0.56

## CS(=O)(=O)c1ccc(C(=O)Nc2ccc(Cl)c(-c3ccccn3)c2)c(Cl)c1 (library stock concentration (final ~1000-fold dilution): 10 mM)
RAW-Dual [1]; [4]
  IRF Lucia reporter activity: 0.827
RAW-Dual [1]; agonist: LPS (TLR4) 0.1 ug/mL
  IRF Lucia reporter activity: 1.01

## CS(=O)(=O)c1ccc(C(=O)Nc2ccc(Cl)c(-c3ccccn3)c2)c(Cl)c1
RAW-Dual [2]; [5]
  IRF Lucia reporter activity: 1.01

## COc1ccc(-c2coc3cc(O)ccc3c2=O)cc1 (library stock concentration (final ~1000-fold dilution): 10 mM)
RAW-Dual [1]; [4]
  IRF Lucia reporter activity: 0.992
RAW-Dual [1]; agonist: LPS (TLR4) 0.1 ug/mL
  IRF Lucia reporter activity: 1.02

## COc1ccc(-c2coc3cc(O)ccc3c2=O)cc1
RAW-Dual [2]; [5]
  IRF Lucia reporter activity: 1.13

## CN1CCN(S(=O)(=O)c2ccc(-c3cnc(N)c(C(=O)Nc4cccnc4)n3)cc2)CC1 (library stock concentration (final ~1000-fold dilution): 10 mM)
RAW-Dual [1]; [4]
  IRF Lucia reporter activity: 0.198
RAW-Dual [1]; agonist: LPS (TLR4) 0.1 ug/mL
  IRF Lucia reporter activity: 0.414

## CN1CCN(S(=O)(=O)c2ccc(-c3cnc(N)c(C(=O)Nc4cccnc4)n3)cc2)CC1
RAW-Dual [2]; [5]
  IRF Lucia reporter activity: 0.484

## Nc1ccc2ncnc(NCCc3ccc(Oc4ccccc4)cc3)c2c1 (library stock concentration (final ~1000-fold dilution): 10 mM)
RAW-Dual [1]; agonist: LPS (TLR4) 0.1 ug/mL
  IRF Lucia reporter activity: 1.24 and 0.86

## Nc1ccc2ncnc(NCCc3ccc(Oc4ccccc4)cc3)c2c1
RAW-Dual [2]; [5]
  IRF Lucia reporter activity: 1.17 ± 0.22

## CCOC(=O)N1CCC(=C2c3ccc(Cl)cc3CCc3cccnc32)CC1 (library stock concentration (final ~1000-fold dilution): 10 mM)
RAW-Dual [3]; [4]
  IRF Lucia reporter activity: 0.821
RAW-Dual [3]; agonist: LPS (TLR4) 0.1 ug/mL
  IRF Lucia reporter activity: 0.829

## CCOC(=O)N1CCC(=C2c3ccc(Cl)cc3CCc3cccnc32)CC1
RAW-Dual [2]; [6]
  IRF Lucia reporter activity: 0.615

## COc1cc2c(cc1Cc1cccc(Cl)c1F)c(=O)c(C(=O)O)cn2C(CO)C(C)C (configuration not stated)
RAW-Dual [2]; [5]
  IRF Lucia reporter activity: 1.04

## COc1cc2c(cc1Cc1cccc(Cl)c1F)c(=O)c(C(=O)O)cn2C(CO)C(C)C (configuration not stated) (library stock concentration (final ~1000-fold dilution): 10 mM)
RAW-Dual [1]; [4]
  IRF Lucia reporter activity: 1.15
RAW-Dual [1]; agonist: LPS (TLR4) 0.1 ug/mL
  IRF Lucia reporter activity: 0.931

## CC1c2cccc(O)c2C(=O)C2=C(O)C3(O)C(=O)C(C(N)=O)=C(O)C(N(C)C)C3C(O)C21 (configuration not stated)
RAW-Dual [2]; [5]
  IRF Lucia reporter activity: 0.975

## CC1c2cccc(O)c2C(=O)C2=C(O)C3(O)C(=O)C(C(N)=O)=C(O)C(N(C)C)C3C(O)C21 (configuration not stated) (library stock concentration (final ~1000-fold dilution): 10 mM)
RAW-Dual [1]; [4]
  IRF Lucia reporter activity: 0.96
RAW-Dual [1]; agonist: LPS (TLR4) 0.1 ug/mL
  IRF Lucia reporter activity: 0.682
